In all, about 200,000 compounds went through this assay and about 10 (0.005%) were called active. The inconclusive results got no clear call from the source; some entries with a clear call stand among them for comparison. The call rests on the fitted dose curve; in most records, active means well fitted inhibition curve with a large enough effect; inconclusive means small, poorly fitted or top-dose-only effect, or effect the other way, or another doubt; inactive means no such curve, though single readings can be large or run the other way. A potency beside an inconclusive call is a rough fit, not a confirmed value.
Target: Lysosomal alpha-glucosidase (Homo sapiens) (UniProt P10253)
Test: qHTS Assay for Inhibitors of Human alpha-Glucosidase as a Potential Chaperone Treatment of Pompe Disease;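 on activity change, negative = inhibition: plate controls were uninhibited enzyme wells for no effect and no-enzyme background for full effect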
Details: purified human GAA, 4-MU-alpha-glucoside fluorescence; activity change, negative = inhibition: at 76.9 µM (top of the series) unless noted
Summary of the method: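 Read-out is 4-methylumbelliferone fluorescence (Ex 365/Em 440 nm) after NaOH/glycine stop at pH 10. Enzyme 4 nM, substrate 400 uM, pH 5.0 citrate buffer, 20 min room temperature; AC50 from Hill-equation concentration-response.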
Potency means the concentration at half of the fitted maximal effect; tags describe the fitted curve by direction and shape.

| Structure (SMILES) | activity change, negative = inhibition | Potency |
| --- | --- | --- |
| CC1CCC(C(=O)NC(C(=O)NCc2cccnc2)C(C)C)CC1 (stereo not given) | inconclusive: -17.3% [inhibitor] | – |
| COC(=O)c1[nH]c2ccc(C)cc2c1NC(=O)CN1CCN(Cc2ccccc2)CC1 | inconclusive: -16.7% [inhibitor] [at 15.4 µM] | – |
| CC(=O)N1CCN(S(=O)(=O)c2cccc(C(=O)NC3CCCc4ccccc43)c2)CC1 (stereo not given) | – | inconclusive: 31.6 µM [inhibitor, single point] |
| CCCCN(CC)CCCNC(=O)c1cc2cc3ccc(OC)cc3nc2o1 | – | inconclusive: 31.6 µM [activator, partial curve] |
| CN(c1ccc(C(=O)NCc2ccc3c(c2)OCO3)cc1)S(C)(=O)=O | inconclusive: -17.8% [inhibitor] | – |
| CCCSc1nnc(-c2ccccc2NC(=O)CC)c(=O)[nH]1 | inconclusive: -25.4% [inhibitor] | – |
| Cc1ccc(Cl)c(Nc2ccccc2C(=O)O)c1Cl | – | inconclusive: 11.2 µM [inhibitor, single point] |
| COC(=O)c1sc2nc3c(cc2c1N)CCCC3 | inconclusive: 20.9% [activator] | – |
| Fc1cccc(Cc2noc(CN3CCCCC3CCc3ccccn3)n2)c1 (stereo not given) | – | inconclusive: 1.12 µM [inhibitor, partial curve, poor fit] |
| CN(CCc1cn[nH]c1)C(=O)CC1C(=O)NCCN1Cc1ccccc1C(F)(F)F (stereo not given) | – | inconclusive: 3.98 µM [inhibitor, single point] |
| CCN1/C(=C/C=C/c2oc3ccc(-c4ccccc4)cc3[n+]2CC)Oc2ccc(-c3ccccc3)cc21 | – | inconclusive: 20 µM [inhibitor, partial curve] |
| CCN(CC)c1ccc(NC(=S)NC(=O)c2ccco2)cc1 | inactive: 12.6% | – |
| Cn1cnc(S(=O)(=O)NCc2cccs2)c1 | – | inconclusive: 11.2 µM [inhibitor, single point] |
| O=S(=O)(/N=C(/Nc1ccccc1F)c1ccccc1)c1ccccc1 | inactive: -1.36% | – |
| CC(C)(C)NC(=O)Nc1ccc2nccnc2c1 | – | inconclusive: 31.6 µM [activator, single point] |
| O=[N+]([O-])c1ccc(NC2CCCC2)cc1 | – | inconclusive: 56.2 µM [inhibitor, single point] |
| COc1cccc(NC(=O)C(NCC2CCCCC2)c2ccccc2)c1 (stereo not given) | – | inconclusive: 39.8 µM [inhibitor, single point] |
| CCCCCNC(=O)c1ccc2c(=O)n(CC3CCCO3)c(=O)[nH]c2c1 (stereo not given) | – | inconclusive: 39.8 µM [activator, partial curve] |
| C=CCn1c(N)c(C(=O)OCC(C)C)c2nc3ccccc3nc21 | – | inconclusive: 35.5 µM [activator, partial curve] |
| O=C(O)c1ccccc1NS(=O)(=O)c1cccc(C(F)(F)F)c1 | – | inconclusive: 10 µM [inhibitor, full curve, poor fit] |
| Cc1ccc(C)c(N2CCN(C(c3ccncc3)c3nnnn3Cc3ccccc3)CC2)c1 (stereo not given) | inconclusive: -17.6% [inhibitor] | – |
| CN1CCN(C2=CC3=CC(=C(C#N)C#N)CCC3CC2)CC1 (stereo not given) | – | inconclusive: 31.6 µM [inhibitor, single point] |

| Structure (SMILES) | activity change, negative = inhibition | Potency |
| --- | --- | --- |
| O=C(Cc1coc(-c2ccc(F)cc2)n1)NCc1ccccc1 | – | inconclusive: 8.91 µM [inhibitor, partial curve, poor fit] |
| O=C(c1ccco1)N1CCN(C/C=C/c2ccccc2)CC1 | – | inconclusive: 17.8 µM [activator, partial curve] |
| CC1(C(=O)N(CC(=O)NC2CCCC2)C2CCCC2)CC(=O)N=C2C=CC=CN21 (stereo not given) | – | inconclusive: 50.1 µM [activator, single point] |
| COc1cccc(N2CC(C(=O)Nc3nnc(SCc4cccnc4)s3)CC2=O)c1 (stereo not given) | – | inconclusive: 56.2 µM [inhibitor, single point] |
| Cc1ccc(NC(=S)NNC(=O)c2nn(C)cc2Cl)cc1 | inactive: 4.81% | – |
| CC1CCN(C(=O)C(C)c2ccc([N+](=O)[O-])cc2)CC1 (stereo not given) | – | inconclusive: 50.1 µM [inhibitor, single point] |
| CN1CCN(c2nc(NCCOC34CC5CC(CC(C5)C3)C4)nc(OCC(F)(F)F)n2)CC1 | – | inconclusive: 11.2 µM [inhibitor, single point] |
| Cc1cc(C)nc(SCc2ccc(C(=O)N/N=C/C3CCCCC3)cc2)n1 | – | inconclusive: 31.6 µM [activator, single point] |
| N#Cc1c(NCCN)nc(-c2ccccc2)c2c1CCCC2 | inconclusive: -20.9% [inhibitor] | – |
| O=S(=O)(c1ccc(Br)cc1)N1CCn2c(nc3ccccc32)C1 | inconclusive: -18.8% [inhibitor] | – |
| CC(=O)Nc1cc2c(ccc3ccccc32)oc1=O | – | inconclusive: 25.1 µM [activator, partial curve] |
| CC(C)CNC(=O)CCc1nc(-c2ccccc2)no1 | – | inconclusive: 7.94 µM [inhibitor, partial curve, poor fit] |
| O=C(/C=C/c1ccco1)NC(=S)Nc1ccccc1N1CCCC1 | – | inconclusive: 0.891 µM [inhibitor, full curve, poor fit] |
| CCS(=O)(=O)NCc1ccc2[nH]c3c(c2c1)CCCC3 | inactive: 2.01% | – |
| COc1ccc(Cl)cc1C(=O)CSc1nnnn1C1CCCCC1 | – | inconclusive: 1.26 µM [inhibitor, full curve] |
| Cc1cc(-c2nnc(CCC(=O)N(CC3CCC3)CC3CCCO3)o2)no1 (stereo not given) | – | inconclusive: 5.01 µM [inhibitor, single point] |
| CC1(C)Cc2ccccc2C2=NNC(=O)C2=N1 | inconclusive: 4.38% [activator] | – |
| Cc1ccc(N2N=C(c3ccc(Br)cc3)CCC2=O)cc1 | – | inconclusive: 1.58 µM [inhibitor, full curve] |
| CC(C)(C)c1ccc(-c2nc3c(C#N)c(-c4ccc5c(c4)OCO5)ccn3n2)cc1 | – | inconclusive: 44.7 µM [activator, single point] |
| COC(=O)Cc1cc(=O)[nH]c(/N=C(\N)Nc2cccc(C)c2)n1 | – | inconclusive: 5.62 µM [inhibitor, single point] |
| O=C(CCCC(=O)OCC(=O)c1cccs1)Nc1ccc(F)cc1 | inconclusive: 10.3% [activator] | – |
| Cc1cc(Cl)ccc1NC(=S)NCc1ccccc1Cl | inconclusive: -15.3% [inhibitor] | – |

| Structure (SMILES) | activity change, negative = inhibition | Potency |
| --- | --- | --- |
| CCCOc1ccc(/C=C/C(=O)N2CCN(c3ccccn3)CC2)cc1 | – | inconclusive: 0.794 µM [inhibitor, full curve, poor fit] |
| CNc1ccc(Cl)cc1C(N)=O | – | inconclusive: 50.1 µM [activator, single point] |
| COc1cccc(C(=O)Nc2ccc3nc(N4CCOCC4)cc(C)c3c2)c1 | inactive: -6.16% | – |
| CNC(=O)c1cc2ccc(OC)cc2oc1=O | – | inconclusive: 28.2 µM [activator, partial curve] |
| CC(C)C(NS(=O)(=O)c1ccc2c(c1)oc(=O)n2C)C(=O)N1CCN(c2ccccc2F)CC1 (stereo not given) | inconclusive: -16.9% [inhibitor] | – |
| COc1ccccc1NC(=O)C1=C(C)NC(=O)NC1c1ccccc1F (stereo not given) | – | inconclusive: 56.2 µM [inhibitor, single point] |
| C=CCc1c(C)nc(-c2ccccc2)nc1N/N=C/c1ccncc1 | – | inconclusive: 39.8 µM [inhibitor, single point] |
| O=C(NCc1ccco1)c1scc2c1OCCO2 | – | inconclusive: 50.1 µM [inhibitor, single point] |
| COc1cccc(C(=O)C2CCCN(C(=O)c3ccc(C#CC(C)(C)O)cc3)C2)c1 (stereo not given) | – | inconclusive: 11.2 µM [inhibitor, full curve, poor fit] |
| Cc1ccc(NC2=C(Cl)C(=O)OC2OC(=O)c2ccco2)cc1C (stereo not given) | – | inconclusive: 44.7 µM [inhibitor, partial curve, poor fit] |
| CS(=O)(=O)Nc1ccc(C2=NN(C(=O)C3CCCCC3)C(c3cccs3)C2)cc1 (stereo not given) | – | inconclusive: 44.7 µM [activator, single point] |
| N#CCCN1CCN(S(=O)(=O)c2ccc(S(=O)(=O)N3CCOCC3)cc2)CC1 | – | inconclusive: 35.5 µM [inhibitor, partial curve] |
| O=C1c2c(O)cc(O)cc2O[C@@]12c1c(cc(O)c3c1O[C@H](c1ccc(O)cc1)[C@@H](O)C3)O[C@@H]2c1ccc(O)cc1 | – | inconclusive: 31.6 µM [inhibitor, single point] |
| CCCCOC(=O)C(C)Nc1n[nH]c(=S)[nH]c1=O (stereo not given) | inconclusive: -16.5% [inhibitor] | – |
| CCOC(=O)c1c(CC(C)C)csc1/N=C/C1C(=O)CC(C)(C)CC1=O | – | inconclusive: 31.6 µM [inhibitor, single point] |
| COc1ccc(C(=O)N(Cc2ccccc2)Cc2cc3cc4c(cc3[nH]c2=O)OCCO4)cc1 | – | inconclusive: 3.55 µM [inhibitor, partial curve, poor fit] |
| COc1cc(C(=O)N2CCN(S(=O)(=O)c3cccs3)CC2)cc(OC)c1C | inconclusive: -16.9% [inhibitor] | – |
| COc1ccccc1CNC(=O)CSc1nc2ccccc2c(=O)n1CCCN1CCOCC1 | inconclusive: 15.5% [activator] | – |
| CCc1nnc(NS(=O)(=O)c2ccc(N/C=C\C(=O)c3cccc4ccccc34)cc2)s1 | – | inconclusive: 31.6 µM [inhibitor, partial curve, poor fit] |
| COc1ccccc1COCC(O)CN(Cc1ccco1)Cc1ccccc1O (stereo not given) | – | inconclusive: 50.1 µM [inhibitor, single point] |
| COc1cccc(/C=N/NC(=O)CSc2ccccc2C)c1O | – | inconclusive: 11.2 µM [inhibitor, single point] |

Reference: PubChem BioAssay AID1466 (National Center for Advancing Translational Sciences (NCATS), 2008)
